{"source": "the supplement of paper PMC8728848", "assay_in_all_cases": "glycan array binding signal (z-score within array); higher = stronger binding", "conditions_in_all_cases": "glycan notation: IUPAC condensed, linker removed", "key": {"[1]": {"target": "Man(a1-2)Man(a1-3)[Man(a1-2)Man(a1-6)]Man(a1-6)[Man(a1-2)Man(a1-2)Man(a1-3)]Man", "method_in_brief": "(§1)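 The Consortium for Functional Glycomics database supplied 3228 glycan arrays, of which those lacking an available protein sequence were dropped. The binding signal, a within-array Z-score, was averaged across arrays of the same protein sequence and across linkers. Negative scores can be read as non-binding.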"}, "[2]": {"target": "Man(a1-2)Man(a1-3)[Man(a1-2)Man(a1-6)]Man(a1-6)[Man(a1-2)Man(a1-2)Man(a1-3)]Man(b1-4)GlcNAc(b1-4)GlcNAc", "method_in_brief": "as §1"}, "[3]": {"target": "Man(a1-2)Man(a1-3)[Man(a1-6)]Man(a1-6)[Man(a1-2)Man(a1-3)]Man(b1-4)GlcNAc(b1-4)GlcNAc", "method_in_brief": "as §1"}, "[4]": {"target": "Man(a1-2)Man(a1-6)[Man(a1-3)]Man(a1-6)[Man(a1-2)Man(a1-2)Man(a1-3)]Man", "method_in_brief": "as §1"}, "[5]": {"target": "Man(a1-2)Man(a1-6)[Man(a1-3)]Man(a1-6)[Man(a1-2)Man(a1-2)Man(a1-3)]Man(b1-4)GlcNAc(b1-4)GlcNAc", "method_in_brief": "as §1"}, "[6]": {"target": "Man(a1-3)[Man(a1-6)]Man", "method_in_brief": "as §1"}, "[7]": {"target": "Man(a1-3)[Man(a1-6)]Man(a1-6)[Man(a1-2)Man(a1-3)]Man(b1-4)GlcNAc(b1-4)GlcNAc", "method_in_brief": "as §1"}, "[8]": {"target": "Man(a1-3)[Man(a1-6)]Man(a1-6)[Man(a1-3)]Man", "method_in_brief": "as §1"}, "[9]": {"target": "Man(a1-3)[Man(a1-6)]Man(a1-6)[Man(a1-3)]Man(b1-4)GlcNAc(b1-4)GlcNAc", "method_in_brief": "as §1"}, "[10]": {"target": "Man(a1-3)[Man(a1-6)]Man(b1-4)GlcNAc(b1-4)GlcNAc", "method_in_brief": "as §1"}, "[11]": {"target": "Man(a1-3)[Man(a1-6)]Man(b1-4)GlcNAc(b1-4)[Fuc(a1-6)]GlcNAc", "method_in_brief": "as §1"}, "[12]": {"target": "Man(a1-6)Man", "method_in_brief": "as §1"}, "[13]": {"target": "Man(b1-4)GlcNAc", "method_in_brief": "as §1"}, "[14]": {"target": "MurNAc(b1-4)GlcNAc", "method_in_brief": "as §1"}, "[15]": {"target": "Neu5Ac(a2-3)Gal", "method_in_brief": "as §1"}, "[16]": {"target": "Neu5Ac(a2-3)Gal(b1-3)GalNAc", "method_in_brief": "as §1"}, "[17]": {"target": "Neu5Ac(a2-3)Gal(b1-3)GalNAc(b1-3)Gal(a1-4)Gal(b1-4)Glc", "method_in_brief": "as §1"}, "[18]": {"target": "Neu5Ac(a2-3)Gal(b1-3)GalNAc(b1-4)[Neu5Ac(a2-3)]Gal(b1-4)Glc", "method_in_brief": "as §1"}, "[19]": {"target": "Neu5Ac(a2-3)Gal(b1-3)GalNAc(b1-4)[Neu5Ac(a2-8)Neu5Ac(a2-3)]Gal(b1-4)Glc", "method_in_brief": "as §1"}, "[20]": {"target": "Neu5Ac(a2-3)Gal(b1-3)GalNAc6S", "method_in_brief": "as §1"}, "[21]": {"target": "Neu5Ac(a2-3)Gal(b1-3)GlcNAc", "method_in_brief": "as §1"}, "[22]": {"target": "Neu5Ac(a2-3)Gal(b1-3)GlcNAc(b1-2)Man", "method_in_brief": "as §1"}, "[23]": {"target": "Neu5Ac(a2-3)Gal(b1-3)GlcNAc(b1-2)Man(a1-3)[GlcNAc(b1-4)][Neu5Ac(a2-3)Gal(b1-3)GlcNAc(b1-2)Man(a1-6)]Man(b1-4)GlcNAc(b1-4)GlcNAc", "method_in_brief": "as §1"}, "[24]": {"target": "Neu5Ac(a2-3)Gal(b1-3)GlcNAc(b1-2)Man(a1-3)[Neu5Ac(a2-3)Gal(b1-3)GlcNAc(b1-2)Man(a1-6)]Man(b1-4)GlcNAc(b1-4)GlcNAc", "method_in_brief": "as §1"}, "[25]": {"target": "Neu5Ac(a2-3)Gal(b1-3)GlcNAc(b1-3)Gal(b1-3)GlcNAc", "method_in_brief": "as §1"}, "[26]": {"target": "Neu5Ac(a2-3)Gal(b1-3)GlcNAc(b1-3)Gal(b1-4)GlcNAc", "method_in_brief": "as §1"}, "[27]": {"target": "Neu5Ac(a2-3)Gal(b1-3)GlcNAc(b1-3)GalNAc", "method_in_brief": "as §1"}, "[28]": {"target": "Neu5Ac(a2-3)Gal(b1-3)GlcNAc(b1-4)Gal(b1-4)Glc", "method_in_brief": "as §1"}, "[29]": {"target": "Neu5Ac(a2-3)Gal(b1-3)GlcNAc(b1-6)GalNAc", "method_in_brief": "as §1"}, "[30]": {"target": "Neu5Ac(a2-3)Gal(b1-3)GlcNAc6S", "method_in_brief": "as §1"}, "[31]": {"target": "Neu5Ac(a2-3)Gal(b1-3)[Fuc(a1-4)]GlcNAc", "method_in_brief": "as §1"}, "[32]": {"target": "Neu5Ac(a2-3)Gal(b1-3)[Fuc(a1-4)]GlcNAc(b1-3)Gal(b1-3)[Fuc(a1-4)]GlcNAc", "method_in_brief": "as §1"}, "[33]": {"target": "Neu5Ac(a2-3)Gal(b1-3)[Fuc(a1-4)]GlcNAc(b1-3)Gal(b1-4)[Fuc(a1-3)]GlcNAc", "method_in_brief": "as §1"}, "[34]": {"target": "Neu5Ac(a2-3)Gal(b1-3)[GlcNAc(b1-6)]GalNAc", "method_in_brief": "as §1"}, "[35]": {"target": "Neu5Ac(a2-3)Gal(b1-3)[Neu5Ac(a2-6)]GalNAc", "method_in_brief": "as §1"}, "[36]": {"target": "Neu5Ac(a2-3)Gal(b1-3)[Neu5Ac(a2-6)]GlcNAc(b1-3)[Fuc(a1-3)[Gal(b1-4)]GlcNAc(b1-6)]Gal(b1-4)Glc", "method_in_brief": "as §1"}, "[37]": {"target": "Neu5Ac(a2-3)Gal(b1-3)]Neu5Ac(a2-3)Gal(b1-4)]GlcNAc", "method_in_brief": "as §1"}, "[38]": {"target": "Neu5Ac(a2-3)Gal(b1-4)Glc", "method_in_brief": "as §1"}}, "note": "The list shows a part of the results.", "data": [{"binder": "SBD-G4S3-SBD (protein) MASIPSSASVQLDSYNYDGSTFSGKIYVKNIAYSKKVTVVYADGSDNWNNNGNIIAASFSGPISGSNYEYWTFSASVKGIKEFYIKYEVSGKTYYDNNNSANYQVSTGGGGSGGGGSGGGGSEFASIPSSASVQLDSYNYDGSTFSGKIYVKNIAYSKKVTVVYADGSDNWNNNGNIIAASFSGPISGSNYEYWTFSASVKGIKEFYIKYEVSGKTYYDNNNSANYQVST", "values": [{"measurement": "glycan array binding signal (z-score)", "setting": "[1]", "result": -0.42}, {"measurement": "glycan array binding signal (z-score)", "setting": "[2]", "result": -0.217}, {"measurement": "glycan array binding signal (z-score)", "setting": "[3]", "result": -0.247}, {"measurement": "glycan array binding signal (z-score)", "setting": "[4]", "result": -0.369}, {"measurement": "glycan array binding signal (z-score)", "setting": "[5]", "result": -0.374}, {"measurement": "glycan array binding signal (z-score)", "setting": "[6]", "result": -0.355}, {"measurement": "glycan array binding signal (z-score)", "setting": "[7]", "result": -0.04}, {"measurement": "glycan array binding signal (z-score)", "setting": "[8]", "result": -0.125}, {"measurement": "glycan array binding signal (z-score)", "setting": "[9]", "result": -0.351}, {"measurement": "glycan array binding signal (z-score)", "setting": "[10]", "result": -0.371}, {"measurement": "glycan array binding signal (z-score)", "setting": "[11]", "result": -0.323}, {"measurement": "glycan array binding signal (z-score)", "setting": "[12]", "result": 0.697}, {"measurement": "glycan array binding signal (z-score)", "setting": "[13]", "result": -0.315}, {"measurement": "glycan array binding signal (z-score)", "setting": "[14]", "result": -0.374}, {"measurement": "glycan array binding signal (z-score)", "setting": "[15]", "result": -0.394}, {"measurement": "glycan array binding signal (z-score)", "setting": "[16]", "result": -0.369}, {"measurement": "glycan array binding signal (z-score)", "setting": "[17]", "result": -0.32}, {"measurement": "glycan array binding signal (z-score)", "setting": "[18]", "result": -0.403}, {"measurement": "glycan array binding signal (z-score)", "setting": "[19]", "result": -0.376}, {"measurement": "glycan array binding signal (z-score)", "setting": "[20]", "result": -0.397}, {"measurement": "glycan array binding signal (z-score)", "setting": "[21]", "result": -0.372}, {"measurement": "glycan array binding signal (z-score)", "setting": "[22]", "result": -0.183}, {"measurement": "glycan array binding signal (z-score)", "setting": "[23]", "result": -0.25}, {"measurement": "glycan array binding signal (z-score)", "setting": "[24]", "result": -0.305}, {"measurement": "glycan array binding signal (z-score)", "setting": "[25]", "result": -0.395}, {"measurement": "glycan array binding signal (z-score)", "setting": "[26]", "result": -0.377}, {"measurement": "glycan array binding signal (z-score)", "setting": "[27]", "result": -0.432}, {"measurement": "glycan array binding signal (z-score)", "setting": "[28]", "result": -0.389}, {"measurement": "glycan array binding signal (z-score)", "setting": "[29]", "result": -0.379}, {"measurement": "glycan array binding signal (z-score)", "setting": "[30]", "result": -0.296}, {"measurement": "glycan array binding signal (z-score)", "setting": "[31]", "result": -0.409}, {"measurement": "glycan array binding signal (z-score)", "setting": "[32]", "result": -0.35}, {"measurement": "glycan array binding signal (z-score)", "setting": "[33]", "result": -0.326}, {"measurement": "glycan array binding signal (z-score)", "setting": "[34]", "result": -0.44}, {"measurement": "glycan array binding signal (z-score)", "setting": "[35]", "result": -0.217}, {"measurement": "glycan array binding signal (z-score)", "setting": "[36]", "result": -0.447}, {"measurement": "glycan array binding signal (z-score)", "setting": "[37]", "result": -0.286}, {"measurement": "glycan array binding signal (z-score)", "setting": "[38]", "result": -0.399}]}]}
